Several values for one entry are separate records, joined by “and”; a condition that tells them apart may be missing. Equal values may be shown once. Screen size: about 220,000 compounds; about 16,000 (7.3%) were called active. Inconclusive results, whose numbers are uncertain, are shown with a selection of clear calls. The call rests on the fitted dose curve; in most records, active means well fitted inhibition curve with a large enough effect (not every such curve was filed as active); inconclusive means small, poorly fitted or top-dose-only effect, or another doubt; inactive means no such curve, though single readings can be large or run the other way. Potencies of inconclusive entries are left out as doubtful fits.
molecular target: Aldehyde dehydrogenase 1A1 (Homo sapiens) (UniProt P00352); assay: qHTS Assay for Inhibitors of Aldehyde Dehydrogenase 1 (ALDH1A1); details: Purified ALDH1A1, NADH fluorescence, propionaldehyde substrate; series mostly up to 75.3 µM;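 on activity, negative = inhibition: plate controls were no enzyme wells and a reference inhibitor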
Potency means the concentration at half of the fitted maximal effect; tags describe the fitted curve by direction and shape.

UniProt P00352, sequence (P00352 whole entry, looked up): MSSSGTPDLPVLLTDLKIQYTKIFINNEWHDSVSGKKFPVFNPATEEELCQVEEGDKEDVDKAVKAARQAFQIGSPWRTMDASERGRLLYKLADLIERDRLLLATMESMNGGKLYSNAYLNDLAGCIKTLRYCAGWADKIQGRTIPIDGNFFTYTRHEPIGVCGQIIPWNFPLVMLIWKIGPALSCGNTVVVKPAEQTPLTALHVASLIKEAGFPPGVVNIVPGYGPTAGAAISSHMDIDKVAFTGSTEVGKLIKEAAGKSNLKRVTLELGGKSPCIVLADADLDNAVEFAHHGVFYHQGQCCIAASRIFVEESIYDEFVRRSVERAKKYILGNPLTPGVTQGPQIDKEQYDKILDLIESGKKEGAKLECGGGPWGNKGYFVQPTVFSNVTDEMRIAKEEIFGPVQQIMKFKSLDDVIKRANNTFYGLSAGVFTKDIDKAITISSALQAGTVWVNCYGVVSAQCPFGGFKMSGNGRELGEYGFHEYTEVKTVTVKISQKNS

Row | Structure (SMILES) | Potency | activity, negative = inhibition
1 | CC(C)C[C@H]1C(=O)N2CCC[C@@H]2[C@]2(O)O[C@](NC(=O)[C@@H]3C=C4c5cccc6[nH]c(Br)c(c56)C[C@H]4N(C)C3)(C(C)C)C(=O)N12 | inactive | 
2 | S=C(Nc1ccccc1)Nc1cccc(Br)c1 | inconclusive [inhibitor, single point] | 
3 | O=[N+]([O-])c1ccc(N2CCNCC2)cc1NCC1CCCO1 (configuration not stated) | inconclusive [inhibitor, single point] | 
4 | Cc1ccc2nc3c(cc2c1)CC1(C(=O)N(C)C(=O)N(C)C1=O)C1CCCCN31 (configuration not stated) | inconclusive [inhibitor, single point] | 
5 | COC(=O)COc1ccc(Cl)cc1Cl | inactive | 
6 | CCOC(=O)c1c(N)n(CCCOC(=O)c2ccco2)c2nc3ccccc3nc12 | inconclusive [inhibitor, partial curve] | 
7 | CC(=O)NC(Cc1ccc(N(CCCl)CCCl)cc1)C(=O)NC(CC(C)C)C(=O)O (configuration not stated) | active: 2.24 µM | 
8 | Cc1c2cnn(CC(=O)N3CCC4(CC3)OCCO4)c(=O)c2c(C)n1Cc1ccccc1F | inconclusive [inhibitor, single point] | 
9 | O=C(Cn1cc(C(=O)c2ccccc2F)c2ccccc21)NC1CC1 | inconclusive [inhibitor, single point] | 
10 | O=C(/C=C/c1cccs1)c1cc(Cl)ccc1OC(=O)N1CCOCC1 | inconclusive [inhibitor, single point] | 
11 | COc1ccc(-n2c(Cc3ccccc3)nc3ccccc3c2=O)cc1 | inconclusive [inhibitor, single point] | 
12 | O=[N+]([O-])c1cccc2c([As](=O)(O)O)cccc12 | inconclusive [inhibitor, single point] | 
13 | Cc1ccc(-n2c(O)c(C=NCCC3=CCCCC3)c(=O)[nH]c2=O)cc1 | inconclusive [inhibitor, single point] | 
14 | O=C(O)CCn1cc(C=C2C(=O)NC(=O)NC2=O)c(-c2ccc(Br)cc2)n1 | inactive | 
15 | CC1=C[C@@H]2c3cccc4[nH]cc(c34)C[C@H]2N(C)C1 | inconclusive [inhibitor, partial curve] | 
16 | CC(=O)Nc1ccc(S(=O)(=O)NC(CC(=O)N2CCC3(CC2)OCCO3)C(C)C)cc1 (configuration not stated) | inactive | 
17 | CCN(CC)C(=O)CN1CCN(c2ccccc2F)CC1 | inconclusive [inhibitor, partial curve] | 
18 | CCn1c(O)c(C=NCc2cccs2)c(=O)[nH]c1=O | inactive | 
19 | CC(=O)OC1CC(OC(C)=O)[C@]2(C)C(CC(OC(C)=O)[C@]3(C)C2CC[C@@]2(C)C(c4ccoc4)C(=O)C4O[C@]432)C1(C)C (some centres not stated) | inactive | 
20 | CN1CCN(c2nc3ccccn3c(=O)c2C=C2C(=O)N(C)C(=O)N(C)C2=O)CC1 | inconclusive [inhibitor, partial curve, poor fit] | 
21 | COP(=S)(OC)SCn1nnc2ccccc2c1=O | active: 7.94 µM and active: 12.6 µM | 

Row | Structure (SMILES) | Potency | activity, negative = inhibition
22 | COC(=O)[C@@]1(OC)C[C@@H]2O[C@@]1(C)n1c3ccccc3c3c4c(c5c6ccccc6n2c5c31)C(=O)N(C)C4 |  | inactive: 4.72% [at 13.5 µM]
23 | O=[N+]([O-])c1ccc(NCc2ccccc2)c2nonc12 | inactive | 
24 | C[C@H]1CC[C@@H]2[C@@H](C)[C@H]3[C@H](C[C@H]4[C@@H]5CC=C6CC(O[C@@H]7O[C@H](CO)[C@H](O)[C@H](O[C@@H]8O[C@H](CO)[C@@H](O)[C@H](O)[C@H]8O)[C@H]7O[C@H]7O[C@@H](C)[C@H](O)[C@@H](O)[C@H]7O)CC[C@]6(C)[C@H]5CC[C@]34C)N2C1 (some centres not stated) | active: 22.4 µM | 
25 | CCCCC/C=C\C/C=C\C/C=C\C/C=C\CCCC(=O)NCc1ccc(O)c(OC)c1 | active: 25.1 µM | 
26 | CCCCOCCCn1c(N)c(C(=O)OCCOC)c2nc3ccccc3nc21 | inconclusive [inhibitor, full curve] | 
27 | O=C1NC(=O)N(c2ccccc2)C(=O)/C1=C\C=C\c1ccccc1 | active: 10 µM | 
28 | CC(NC(=O)Oc1ccccc1)C(c1cccs1)N1CCOCC1 (configuration not stated) | inconclusive [inhibitor, single point] | 
29 | O=C1C2CCCN2C(c2cccs2)N1c1ccc(Cl)cc1 (configuration not stated) | inconclusive [inhibitor, single point] | 
30 | CCN(CC)c1ccc(/C=N/c2sc3c(c2C#N)C2CCN3CC2)c(O)c1 | inconclusive [inhibitor, single point] | 
31 | O=c1[nH]c(=O)n(-c2cccc(Cl)c2)c(O)c1C=NCCCN1CCOCC1 | inconclusive [inhibitor, single point] | 
32 | CCOC(=O)c1ccc(NC(=O)c2c(O)[nH]c(=O)[nH]c2=O)cc1 | inconclusive [inhibitor, single point] | 
33 | CC(C)=CCCC(C)C1CC[C@@]2(C)C3=C(CC[C@@]12C)C1(C)CCC(O)C(C)(C)C1CC3 (some centres not stated) | active: 28.2 µM | 
34 | CN1CCN(c2cc(N3CCCC3)c([N+](=O)[O-])cc2F)CC1 | inconclusive [inhibitor, partial curve] | 
35 | Cc1ccc(NC(=O)CN2C(=O)CN=C(c3ccccc3)c3cc(Cl)ccc32)cc1 | inconclusive [inhibitor, single point] | 
36 | COP(=S)(OC)Oc1ccc(SC)c(C)c1 | inactive | 
37 | CN(CCc1ccc(Cl)c(Cl)c1)[C@H]1CCCC[C@H]1N1CCCC1 | active: 25.1 µM | 
38 | O=C(c1c[nH]c2ccc(S(=O)(=O)N3CCOCC3)cc2c1=O)N1CCC2(CC1)OCCO2 | inconclusive [inhibitor, partial curve] | 
39 | COc1ccc(/C=C2/C(=O)NC(=S)N(C3CC3)C2=O)cc1CN1C(=O)c2ccccc2C1=O | active: 20 µM | 
40 | Cc1ccc2c(c1)C1CN(C)CCC1N2C(=O)CCCN1C(=O)c2cccc3cccc(c23)C1=O (configuration not stated) | inconclusive [inhibitor, single point] | 
41 | ClCBr | inactive | 
42 | CC1=NN(Cc2c[nH]c3ccccc23)C(C)(C)C1 | inconclusive [inhibitor, single point] | 

— PubChem BioAssay AID1030 (National Center for Advancing Translational Sciences (NCATS), 2008)
